# Results: PubChem BioAssay AID445 (National Center for Advancing Translational Sciences (NCATS), 2006)
# In all, about 110,000 compounds went through this assay and about 40 (0.04%) were called active. The inconclusive results got no clear call from the source; some entries with a clear call stand among them for comparison. Calls come from the whole dose curve; as a rule, active = well fitted curve in the direction sought with a large enough effect in the signal ratio (not every such curve was filed as active); inconclusive = small, poorly fitted or top-dose-only effect, or a change in a side signal; inactive = flat fitted curve, though single readings scatter; the % refers to the signal ratio. A potency beside an inconclusive call is a rough fit, not a confirmed value.
# Test: IkB Signaling;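 for IkBa stabilization activation: 0% = basal untreated cells and 100% = reference inhibitor full response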
# Conditions: ABC-DLBCL IkBa-CBG/CBR dual luciferase ratio (green luciferase fused to IkBa over red control in OCI-Ly3 lymphoma cells), 4 h; IkBa stabilization activation: at 57.1 µM (top of the series), scaled: untreated 0%, proteasome inhibitor 100% unless noted
# Summary of the method: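 Luminescence ratio of IκBα-fused green versus native red beetle luciferase in OCI-Ly3 cells, 4 h post-doxycycline with compound; red signal alone, scaled from basal (0%) to zero light (-100%), flagged nonspecific or cytotoxic effects.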
# Potency is the fitted concentration of half-maximal effect.
SMILES,IkBa stabilization activation,Potency
Cc1cccc(N2CCN(C(=O)c3ccc4c(Cl)c5c(nc4c3)CCCC5)CC2)c1C,inconclusive: 0.902% [signal inhibitor],–
COc1cc(NC(=O)c2nc3ccccc3n(C)c2=O)cc(OC)c1OC,inconclusive: 7.42% [signal inhibitor],–
OC1C=CSc2nc3ccccc3n21 (configuration not stated),–,"inconclusive: 25.1 µM [rising, partial curve]"
Cc1ccc(CCNC(=O)CCS(=O)(=O)c2cc3c(cc2Cl)NC(=O)CO3)cc1,inconclusive: -2.88% [signal inhibitor],–
COc1ccc(CNC(=O)C2=CC(c3cccc(OC)c3)=NS(=O)(=O)N2C)cc1,inactive: -0.0101%,–
O=C(OCc1cc(=O)n2nc(C3CC3)sc2n1)c1ccccc1Cl,inconclusive: 12.2% [signal inhibitor],–
CC(=O)c1cccc(NC(=O)c2cc(C)nc3c2c(C)nn3-c2cccc(Cl)c2C)c1,inconclusive: -0.786% [signal inhibitor],–
COC(=O)c1c(-c2ccc(Cl)cc2)noc1N1CCN(c2ccc(F)cc2)CC1,inconclusive: 1.42% [signal inhibitor],–
CCN(CC)c1nc(C#N)nc(N(CC)CC)n1,inactive: 1.71%,–
Cc1ccc(-c2nc(-c3cc4cccc(OCc5ccccc5F)c4oc3=O)no2)cc1,inconclusive: 3.27% [signal inhibitor],–
O=C(Cn1cc2c(n1)CCCC2)NCCCN1CCN(c2ccccc2F)CC1,inactive: -1.94%,–
N#C/C(=C(/O)CSc1nnc(Cc2cccs2)n1C1CCCCC1)c1nc2ccccc2[nH]1,inconclusive: 17.5% [signal inhibitor],–
Cc1ccc(NC(=O)Cn2c(=O)n(Cc3ccc(C(=O)NCc4ccc5c(c4)OCO5)cc3)c(=O)c3ccccc32)cc1,inconclusive: 2.14% [signal inhibitor],–
CC(C)c1cc(C(=O)NCc2ccccc2)no1,inconclusive: 5.49% [signal inhibitor],–
CCOc1ccc(CNC(=O)CCS(=O)(=O)c2ccc3c(c2)oc(=O)n3C)cc1,inconclusive: -0.557% [signal inhibitor],–
COC(=O)c1ccc(NC(=O)C(=O)NCC(c2cccnc2)N2CCc3ccccc32)cc1 (configuration not stated),inconclusive: 3.19% [signal inhibitor],–
Cc1c(NC(=O)c2sc3ccccc3c2Cl)cccc1-c1nc2ccccc2o1,inconclusive: 9.41% [signal inhibitor],–
Cc1c(Cl)cccc1NC(=O)Cn1nnc(-c2nc(-c3ccccc3)no2)c1N,inconclusive: 9.95% [signal inhibitor],–
COc1cc(Cn2c(-c3nonc3N)nc3ccccc32)ccc1C,inactive: 1.32%,–
Cc1cccc(C)c1NC(=O)CSc1nc2ccccc2c2nc(CCc3c(C)n[nH]c3C)nn12,inactive: -0.997%,–
COc1ccccc1N(CC(=O)NC(C)(C)C)C(=O)Cn1nnc(-c2ccc(C)o2)n1,inactive: 1.44%,–
C[C@@H]1C[C@@H]2[C@H]3CCC4=CC(=O)C=C[C@]4(C)[C@]3(F)[C@@H](O)C[C@]2(C)[C@@]1(O)C(=O)CO,"inconclusive: 12.4% [signal activator] [at 25.6 µM, scaled: untreated 0%, proteasome inhibitor 100%]",–
COc1ccc(CNc2nc3c(-c4cccc(F)c4)nnn3c3ccccc23)cc1,inactive: -1.08%,–

SMILES,IkBa stabilization activation,Potency
COc1ccc(N(C)C(=O)c2cc3c(s2)-c2c(C)cccc2OC3)c(OC)c1,inconclusive: 1.54% [signal inhibitor],–
CCc1nc(SCC(=O)N2CCN(C(=O)c3ccco3)CC2)c2c3c(sc2n1)CCCC3,inconclusive: 5.35% [signal inhibitor],–
Cc1ccc(NC(=O)c2c(C)oc3c2C2=NCCN2C=N3)cc1F,inconclusive: -0.226% [signal inhibitor],–
O=c1ccc2c(OCCCCc3ccccc3)c3ccoc3cc2o1,inactive: -7.26%,–
CCOC(=O)C1CCN(S(=O)(=O)c2cccc(-c3cn4ccccc4n3)c2)CC1,inconclusive: 0.626% [signal inhibitor],–
Cc1cccn2c(=O)cc(CSc3nnc(NC(=O)COc4ccccc4)s3)nc12,inactive: -0.725%,–
CN(C)CN1CSC(=S)N(CN(C)C)C1,"inactive: 1.13% [at 11.4 µM, scaled: untreated 0%, proteasome inhibitor 100%]",–
COc1ccc(C2=C(N3CCN(c4cc(C)ccc4C)CC3)c3ccccc3C2=O)cc1,inconclusive: 1.14% [signal inhibitor],–
Cc1c(Cl)cccc1NC(c1ccc(F)cc1)c1nnc(-c2ccccc2)o1 (configuration not stated),inconclusive: 5.89% [signal inhibitor],–
COc1ccc(OC)c(-n2c(N)c(C(=O)NCC3CCCO3)c3nc4ccccc4nc32)c1 (configuration not stated),inconclusive: -1.21% [signal inhibitor],–
CCOC(=O)c1cc(S(=O)(=O)N2CCN(c3cccc(C)c3C)CC2)[nH]n1,inconclusive: 4.77% [signal inhibitor],–
CNC(=O)c1c(NC(=O)c2nc(SCc3ccc(C)cc3)ncc2Cl)sc2c1CCCC2,inactive: 3.41%,–
NC(=O)c1c(C(F)(F)F)cc(-c2ccccc2)nc1NCCO,inconclusive: 5.38% [signal inhibitor],–
Cc1ccc(NC(=O)Nc2cn(CC(C)C)c(=O)c3ccccc23)cc1N(C)C,inconclusive: 0.103% [signal inhibitor],–
COc1ccc(-c2cc(C(C)=O)c(C)n2CCC(=O)NCc2ccc(C)cc2)cc1,inconclusive: 2.43% [signal inhibitor],–
COc1cccc(CNC(=O)C2CCN(C(=O)c3cnn(-c4ccccc4)c3-n3cccc3)CC2)c1,inconclusive: 1.48% [signal inhibitor],–
COc1ccc(Nc2nnc(-c3ccc(C)c(S(=O)(=O)NCCO)c3)c3ccccc23)cc1C(N)=O,–,inconclusive: 20 µM [signal inhibitor]
COc1ccccc1OCC(=O)N1CCC(c2nc3ccccc3o2)CC1,inconclusive: 4.05% [signal inhibitor],–
CCCS(=O)(=O)c1ncc(Cl)c(C(=O)Nc2c(C(=O)Nc3ccccc3)oc3ccccc23)n1,inconclusive: -1.29% [signal inhibitor],–
C=CCn1c(O)c(C(CC)=NCc2cccnc2)c(=O)[nH]c1=O,inactive: 5.46%,–
Cc1nn(-c2ccc(Cl)cc2)c2nc(-c3cccnc3)cc(C(F)(F)F)c12,inactive: 3.06%,–
CNc1ncnc2c1ncn2[C@H]1C[C@@H](OP(=O)(O)O)[C@H](COP(=O)(O)O)O1,inactive: -3.12%,–
Cc1ccccc1OCCCCn1c(CCNC(=O)C(C)(C)C)nc2ccccc21,inconclusive: 2.57% [signal inhibitor],–

SMILES,IkBa stabilization activation,Potency
COc1ccc(OC)c(CNC(=O)c2ccc(NC(=O)c3nsc4ccccc34)cc2)c1,–,"inconclusive: 31.6 µM [signal inhibitor, partial curve]"
CCOC(=O)CN1C(=O)C(CC)Oc2ccc(Cl)cc21 (configuration not stated),inactive: 0.137%,–
O=C(CSc1ccccc1)NCc1ccc2c(c1)CCN2C(=O)c1ccccc1,inconclusive: -0.561% [signal inhibitor],–
CN(Cc1ccccc1)C(=O)CCS(=O)(=O)c1ccc2c(c1)oc(=O)n2C,inconclusive: 2.26% [signal inhibitor],–
Fc1ccc(C(NCCc2ccccc2)c2nnc(-c3ccccc3Cl)o2)cc1 (configuration not stated),inconclusive: -1.87% [signal inhibitor],–
Cc1ccc2nc(-c3cccc(NC(=O)c4ccc5c(c4)OCCO5)c3)oc2c1,inconclusive: 4.83% [signal inhibitor],–
Cc1ccc(C)c(CN2CCCN(CC(=O)Nc3ccc(C)c(C)c3)S2(=O)=O)c1,inconclusive: -0.149% [signal inhibitor],–
CCOC(=O)c1c(NC(=O)c2ccco2)sc2c1CCCC2,inactive: 2.19%,–
COCCn1c(=O)c(-c2ccc(Cl)cc2)nc2cnc(N3CCOCC3)nc21,"inactive: -2.27% [at 11.4 µM, scaled: untreated 0%, proteasome inhibitor 100%]",–
Nc1nc(CSc2ncn(-c3ccccc3)n2)cs1,–,"inconclusive: 20 µM [signal inhibitor, single point]"
CC[C@]1(O)C[C@H]2CN(CCc3c([nH]c4ccccc34)[C@](C(=O)OC)(c3cc4c(cc3OC)N(C)[C@@H]3[C@](O)(C(=O)OC)[C@H](OC(C)=O)[C@]5(CC)C=CCN6CC[C@]43[C@@H]65)C2)C1,–,active: 0.794 µM
Cc1ccc(S(=O)(=O)N2CCCC2C(=O)OCc2ccco2)cc1 (configuration not stated),–,"inconclusive: 31.6 µM [rising, partial curve]"
COc1ccc(C)cc1NS(=O)(=O)c1cccc2cccnc12,inactive: 1.97%,–
C[C@](N)(C(=O)O)c1ccc(-c2nn[nH]n2)cc1,inactive: 0.077%,–
CN(Cc1ccccc1)c1nc2c(c(=O)[nH]c(=O)n2C)n1Cc1ccccc1,inactive: 0.0867%,–
COc1ccc(Cc2nc3ccc(C(=O)NCCc4ccc(OC)c(OC)c4)cc3o2)cc1,inconclusive: 4.03% [signal inhibitor],–
Cc1ccc(CNS(=O)(=O)c2cc(Br)cc3c2N(C(=O)C2CC2)CC3)cc1,inconclusive: 1.14% [signal inhibitor],–
Cc1cccc2c(=O)cc(CSCC(=O)Nc3ccc(Cl)cc3)[nH]c12,inconclusive: 1.32% [signal inhibitor],–
Cc1ccc(Cn2c(=O)n(Cc3ccccc3)c(=O)c3c(C)c(C)sc32)cc1,inconclusive: 2.67% [signal inhibitor],–
CCCCOc1cccc(C(=O)N(Cc2ccc(Br)o2)C2CCS(=O)(=O)C2)c1 (configuration not stated),inconclusive: 0.808% [signal inhibitor],–
COc1cccc2c1C(=O)c1c(O)c3c(c(O)c1C2=O)C[C@](O)(C(C)=O)C[C@H]3O[C@@H]1C[C@H](N)[C@H](O)[C@H](C)O1,"inconclusive: -9.41% [signal inhibitor] [at 25.6 µM, scaled: untreated 0%, proteasome inhibitor 100%]",–
